Results as given in PubChem BioAssay AID504832 (National Center for Advancing Translational Sciences (NCATS), 2011).
In all, about 310,000 compounds went through this assay and about 18,000 (5.8%) were called active. The shares of active, inactive and inconclusive entries below differ from those in the screen. Calls come from the whole dose curve; as a rule, active = well fitted inhibition curve with a large enough effect; inconclusive = small, poorly fitted or top-dose-only effect, or another doubt; inactive = no such curve, though single readings can be large or run the other way. Potencies of inconclusive entries are left out as doubtful fits.

assay: Primary qHTS for delayed death inhibitors of the malarial parasite plastid, 48 hour incubation; conditions: P. falciparum luciferase growth in erythrocytes; series mostly up to 28.7 µM
How it was run: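 Erythrocytes infected with P. falciparum carrying an integrated firefly luciferase reporter (2% hematocrit, 0.1% parasitemia final) were exposed to compounds in RPMI 1640 with 0.5% Albumax at 37 C, 5% CO2. Growth inhibition was scored as reduced luminescence.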
% is set by controls: 0 for no effect and ±100 for the full control effect; potency is the fitted concentration of half-maximal effect; tags give direction and shape of the fitted curve.

Q: For `Cc1c(Cl)cccc1NS(=O)(=O)c1c(C(=O)N2CCOCC2)c(C)n(C)c1C`, which Potency is on record?
A: inactive

Q: For `COc1ccccc1CCNC(=O)CCSc1nc(-c2ccco2)cc(C(F)(F)F)n1`, which Potency is on record?
A: active: 8.28 µM

Q: For `CC1=CC(C)(C)N2C(=O)C3(NCCc4c3[nH]c3ccccc43)c3cccc1c32` (stereo not given), which Potency is on record?
A: inconclusive [inhibitor, single point]

Q: Which Potency does the source give for `CCc1nc2ccccc2c(=O)n1NCCc1ccccc1` here?
A: inactive

Q: For `O=C(c1ccc(C(F)(F)F)cc1)N1CCC(=O)N(C(COCc2ccc(Cl)cc2)Cc2ccccc2)CC1` (stereo not given), which Potency is on record?
A: inconclusive [inhibitor, single point]

Q: With `O=C(CCn1c(=O)oc2ccccc21)N1CCN(c2ccccc2F)CC1` as the compound, how does the Potency read?
A: inactive

Q: With `O=C(COC(=O)C1CCN(S(=O)(=O)c2c(Cl)cccc2Cl)CC1)NCc1ccco1` as the compound, how does the Potency read?
A: inactive

Q: Which Potency does the source give for `C=CCNCCCCOc1ccccc1-c1ccccc1` here?
A: inconclusive [inhibitor, single point]

Q: Which Potency does the source give for `COC(=O)[C@H](Cc1ccccc1)NC(=O)NCc1ccccc1` here?
A: inactive

Q: For `Cc1ccc(C)c(OCCCNC2CCCC2)c1C`, which Potency is on record?
A: active: 11.7 µM

Q: Which Potency does the source give for `O=C1CN(C(=O)CSc2nc3c(cnn3-c3ccccc3)c(=O)[nH]2)c2ccccc2N1` here?
A: inconclusive [inhibitor, single point]

Q: Which Potency does the source give for `CCn1nc(NC(=O)CC(C)C)c2cc3cccc(C)c3nc21` here?
A: inconclusive [inhibitor, partial curve]

Q: For `CC(C)c1cc(CNC(=O)c2ccc(OC3CCN(Cc4ccccn4)CC3)cc2)on1`, which Potency is on record?
A: inactive

Q: With `C/C(=N\NC(=O)c1cccc(S(=O)(=O)N2CCCC2)c1)c1ccc(C)cc1` as the compound, how does the Potency read?
A: inconclusive [inhibitor, partial curve, poor fit]

Q: Which Potency does the source give for `CC(C)NC(=O)/C(=C\c1cccc([N+](=O)[O-])c1)NC(=O)c1ccccc1` here?
A: inactive

Q: Which Potency does the source give for `CCOC(=O)C1CCCN(c2nc(C)nc3c2oc2ccccc23)C1` (stereo not given) here?
A: inconclusive [inhibitor, single point]

Q: Which Potency does the source give for `CC(=O)c1ccc(C(C)(C)c2ccc(C(C)=O)s2)s1` here?
A: inconclusive [inhibitor, partial curve, poor fit]

Q: For `CC[N+](CC)(CC)CCCOC(=O)C(O)(c1ccccc1)C1CCCCC1` (stereo not given), which Potency is on record?
A: active: 2.94 µM

Q: For `Cc1ccc(C)c(-c2ccc(=O)n(Cc3cccc(Br)c3)n2)c1`, which Potency is on record?
A: inconclusive [inhibitor, single point]

Q: Which Potency does the source give for `CCCc1cc(=O)oc2cc(C)cc(OCC(=O)Nc3ccc(S(N)(=O)=O)cc3)c12` here?
A: inconclusive [inhibitor, single point]

Q: With `CN1C(C(=O)NCc2cccc(C(F)(F)F)c2)CC2Cn3c(nc4ccccc43)C21` (stereo not given) as the compound, how does the Potency read?
A: inconclusive [inhibitor, single point]

Q: For `Cc1nc2ccc(S(=O)(=O)NCC(=O)N(C)Cc3ccccc3)cc2s1`, which Potency is on record?
A: inconclusive [inhibitor, single point]

Q: For `CCc1ccc(OCC(=O)N2c3ccccc3CCc3ccccc32)cc1`, which Potency is on record?
A: active: 9.28 µM

Q: For `CCN1C(=O)/C(=C2/Sc3ccccc3N2CCCS(=O)(=O)O)SC1=S`, which Potency is on record?
A: inconclusive [inhibitor, full curve, poor fit]

Q: Which Potency does the source give for `COc1ccc(CCN2C(=O)C(Oc3ccccc3C)C2c2ccc3c(c2)OCO3)cc1OC` (stereo not given) here?
A: active: 11.7 µM

Q: Which Potency does the source give for `COc1ccc(N2CCN(CC(O)COC(c3ccc(F)cc3)c3ccc(F)cc3)CC2)cc1` (stereo not given) here?
A: active: 9.28 µM

Q: For `CCN(c1ccccc1)S(=O)(=O)c1ccc(C(=O)Nc2nnc(-c3ccco3)o2)cc1`, which Potency is on record?
A: inconclusive [inhibitor, single point]

Q: With `Cc1cc(C)c(OCC(=O)OC(C)C(=O)NC2CC2)c(C)c1` (stereo not given) as the compound, how does the Potency read?
A: inactive

Q: For `COc1ccc(CCNS(=O)(=O)c2ccc(Br)s2)cc1`, which Potency is on record?
A: inactive

Q: With `O=C(CNC(=O)c1cc2ccccc2o1)NCc1cccs1` as the compound, how does the Potency read?
A: inactive

Q: With `CCN(CC)C(CNC(=O)CSc1nnnn1-c1ccc(C)c(C)c1)c1ccco1` (stereo not given) as the compound, how does the Potency read?
A: inconclusive [inhibitor, partial curve]

Q: Which Potency does the source give for `CN1/C(=C\C=N\NC(=O)c2cccnc2)C(C)(C)c2ccccc21` here?
A: active: 0.586 µM

Q: With `Cc1ccc(S(=O)(=O)N2CCOCC2)cc1C(=O)Nc1cccc(S(=O)(=O)N2CCCC2)c1` as the compound, how does the Potency read?
A: inconclusive [inhibitor, single point]

Q: Which Potency does the source give for `CC1CCN(C(=O)c2ccc3c(c2)NC(=O)/C(=C/c2ccccc2)S3)CC1` here?
A: inconclusive [inhibitor, single point]

Q: Which Potency does the source give for `Cc1cc(NC(=O)c2cccc(S(=O)(=O)N3CCC(C)CC3)c2)no1` here?
A: inconclusive [inhibitor, partial curve, poor fit]

Q: Which Potency does the source give for `Fc1ccc(NC(=S)Nc2cc(-c3ccccc3)[nH]n2)cc1Cl` here?
A: active: 10.4 µM

Q: Which Potency does the source give for `CCOC(=O)c1cc(-c2ccccc2C)nn1Cc1cc(CC)no1` here?
A: inconclusive [inhibitor, single point]

Q: With `COc1cccc(OC)c1C(=O)Nc1nc2ccc(S(C)(=O)=O)cc2s1` as the compound, how does the Potency read?
A: inactive

Q: With `CNC(C(=O)c1ccccc1)C(OC(C)=O)c1cccc([N+](=O)[O-])c1` (stereo not given) as the compound, how does the Potency read?
A: inconclusive [inhibitor, full curve, poor fit]

Q: With `COc1ccc2cc(CN(CC3COCCO3)S(=O)(=O)c3ccccc3)c(=O)[nH]c2c1` (stereo not given) as the compound, how does the Potency read?
A: inactive

Q: Which activity change, negative = inhibition does the source give for `CC1CCN(C(=O)COC(=O)c2ccccc2NC(=O)c2ccco2)CC1` here?
A: inactive: 43.6% [at 5.75 µM]

Q: With `O=c1[nH]c(C2CCCN(S(=O)(=O)c3cccc(F)c3)C2)nc2c1nnn2Cc1ccccc1` (stereo not given) as the compound, how does the Potency read?
A: active: 7.38 µM

Q: For `CC(=O)NCCc1nc2ccccc2n1CCOc1cccc(C)c1`, which Potency is on record?
A: inconclusive [inhibitor, partial curve]

Q: For `CN(C)c1ccc(/C=N/Nc2cc(N3CCOCC3)nc(N3CCOCC3)n2)cc1`, which Potency is on record?
A: inconclusive [inhibitor, single point]

Q: Which Potency does the source give for `COc1cc(/C=C/c2ccc3cccc(OC)c3n2)c(O)c([N+](=O)[O-])c1` here?
A: inconclusive [inhibitor, partial curve, poor fit]
